The values that follow come from the RNAGym collection of RNA variant scans (doi:10.1093/nar/gkz1192).

The source gives no read counts; variants with many changes may rest on few reads.

B1: CPEB3 Ribozyme (parent)
chain: UAACAGGGGGCCACAGCAGAAGCGUUCACGUCGCAGCCCCUGUCAGAUUCUGGUGAAUCUGCGAAUUCUGCUGUAUAUCUC

This data set covers variants of B1. The experiment in a line: self-cleavage, relative activity (ratio to wild type); higher = more cleavage; in vitro, sequencing. An outline of the steps: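 For each CPEB3 ribozyme variant, relative activity is its cleaved/total read fraction divided by the unmutated ribozyme's. Barcoded error-prone PCR libraries were transcribed by T7 RNA polymerase (5 hours, 37°C) and held in DNase I for 15 min before an EDTA stop, with cleavage occurring throughout. Template-switching reverse transcription and Illumina sequencing were used to read the RNAs. A 5-read minimum applied, and results are the mean of three batches.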
Consider G7C U26A A28G C37U U78A, for which the self-cleavage was 0.05.
On to G7U U26C A57G, for which the self-cleavage worked out at 0.06.
With G7A A13C A15G U25C A57G U78C the figure was 0.37; with G7A A20G G22A A45G U72A, 0.05.
With G7A G30U A47C U54A A56U U72C the figure was 0.08; with G7U A28U U49C A57G, 0.04.
With G6U G42A A64U the figure was 0.09; with G7A A13G A15U U26C U51C U54C C62G, 0.04.
Turning to G6C G8U A35U G53A U54C U58C U66A, the self-cleavage came out at 0.05.
With G7C U26A U69C the figure was 0.25; with G6A U26A U48C U58C A65G U67A, 0.06.
With G6U U31C C37U U54C U69G the figure was 0.06; with G7U C40A U41C, 0.22; with G7A A64U U72A U80C, 0.06.
With G6U A15U A56G A77U the figure was 0.09.
In the case of G7U C12U A18G A64G, the self-cleavage came to 0.05.
The same measure for G7A A15C U25C U26G U49C A56G U67A: 0; for G8A A20G G24U C37U U51G: 0.05.
For the variant G7U A47U A65G A75G, the self-cleavage amounted to 0.04.
With G6A G22U U25C U41A the figure was 1.08; with G7C A18U U25C, 0.08.
With G7U U43C A65G U67C the figure was 0.06; with G7A A20G C29U U54C U60A, 0.06; with G7A G10A A56U U60C U69A, 0.17.
With G7A A13G A20G U41C C62U the figure was 0.06.
For the variant G8A A18G U26C A28C U51C A57G U72A, the self-cleavage stood at 0.26.
The same measure for G7U G10C A18G A35G: 0.11; for G6U A15G U54C A64G U66C: 0.04; for G7U A21U A35U U80A: 0.19.
As for G7U A15U U25G U26C U43C U72C, the self-cleavage turned out to be 0.06.
With G8A A13U C40U U58C A75G the figure was 0.05; with G6C G8A A64G U69C U72C, 0.09; with G6A U49C A65G U69A, 0.17.
The same measure for G7A A18G A20G U67C: 0.07; for G7U A15G U25C C37G U43C U67C A77U: 0.02; for G7U C32A U43G: 0.07.
The same measure for G7U C17U A35G U67A: 0.17; for G7C C11A A18G A28U G36A U54C A77G: 0.03.
G7U A20G U25C: the self-cleavage stood at 0.5.
The same measure for G8A A18G U41C: 0.09; for G7U U41C U48A A56G U72C U80C: 0.07; for G8A A18U G63A U66C U74C A77G: 0.04.
With G7U G10A A15U G19U C23U the figure was 0.05; with G7A U41A A75G, 0.18.
For the variant G7A G24A U25C U49A A75U, the self-cleavage is 0.07.
Consider G6U A20G A45U A64U U66C, for which the self-cleavage turned out to be 0.08.
With G7A A21G A28U U41C U43C the figure was 0.16; with G7A C29A A47G U58A, 0.12; with G7U A64U U69C U72A G73U, 0.06.
As for G8A A13U U48G A56G U58C A64G, the self-cleavage is 0.04.
G7U A15G A35G G52C A56U: the self-cleavage is 0.21.
With G7C G10A U41C U51C A65U U67C U80C, the self-cleavage is 0.05.
The same measure for G7U G19A A56G: 0.26; for G7A C27U U31A A64U U69A: 0.05; for G6U A20G A56U: 0.34.
The same measure for G7C A15G U25C A47C: 0.3; for G7U A13U U31C A45G U51C A75G: 0.06; for G6U G19U A28U A64G U74A: 0.28.
Take G8A A18U A20G A64G: the self-cleavage is 0.07.
On to G7U A21U U25C U69C, for which the self-cleavage stood at 0.06.
With G6A C23U A65U the figure was 0.07; with G6U U66C A75G, 0.13; with G6A U41A G52A U72A U74C A75C, 0.26.
For the variant G7A A20U U25C A65G U74A, the self-cleavage amounted to 0.05.
Take G7U A15G A20G U51C U69C: the self-cleavage was found to be 0.07.
The same measure for G6A U74C U76C: 0.57.
The same measure for G8A A18U U31A A47G U67C U69C: 0.05; for G7C A20G A21G U25C U51C A57G C81U: 0; for G6U U31C U54C: 0.07.
The same measure for G7U C29U A47C U51A: 0.15.
For G6U A45G U48G, the self-cleavage worked out at 0.18.
The same measure for G7A A13G C37U: 0.22; for G6A C12U U41C U72C: 0.76.
With G7C A35G C39A A56U C59G U78C the figure was 0.04; with G8A A13G U25C, 0.09.
With G6U A21G U26C U67C U80C the figure was 0.13.
Take G7A C38U A56G U78C: the self-cleavage is 0.05.
For G7A G42U U49C U69C, the self-cleavage was 0.07.
For the variant G7U A18U A45G A57G, the self-cleavage came to 0.15.
The same measure for G7U U72C U76G: 0.25; for G7C U41A U49C U69C: 0.34; for G8A A13G C29U A45U U67A U74A: 0.05.
The same measure for G7U A13U U58A U72C U80C: 0.06.
